Measurements taken from publication PMC8536799 (Journal of medicinal chemistry, 2021).

Assays:
SARS-CoV-2 M^pro [1] = biological target: T1, SARS-CoV-2 M^pro (Severe acute respiratory syndrome coronavirus 2, UniProt P0DTD1); conditions: versus compound 13
SARS-CoV-2 M^pro [2] = biological target: T1, SARS-CoV-2 M^pro; assay: Native mass spectrometry binding assay; conditions: 10 μM and 30 μM ligand, 4 mM DTT
SARS-CoV-2 M^pro [3] = biological target: T1, SARS-CoV-2 M^pro; assay: Enzymatic kinetic studies; format: biochemical; conditions: for mode of inhibition (Lineweaver-Burk plot): double-reciprocal plot, intercept at the Y-axis

SMILES | fold increase in M^pro inhibition compared to compound 13 (SARS-CoV-2 M^pro [1]) | binding stoichiometry, native mass spectrometry (SARS-CoV-2 M^pro [2]) | Ki (SARS-CoV-2 M^pro [3]) | mode of inhibition (Lineweaver-Burk plot) (SARS-CoV-2 M^pro [3])
C[C@H](NC(=O)C(c1cccnc1)N(C(=O)c1ccco1)c1ccc([Si](C)(C)C)cc1)c1ccccc1 (stereo partly drawn) [Compound 14, 2-[1-(furan-2-yl)-N-[4-(trimethylsilyl)phenyl]formamido]-N-[(1S)-1-phenylethyl]-2-(pyridinyl)acetamide] | 2.9 fold | – | – | –
C[C@H](NC(=O)[C@@H](c1cccnc1)N(C(=O)c1ccco1)c1ccc(-c2ccccc2)cc1)c1ccccc1 [Compound 23R, (2R)-2-(N-{[1,1’-biphenyl]-4-yl}-1-(furan-2-yl)formamido)-N-[(1S)-1-phenylethyl]-2-(pyridin-3-yl)acetamide] | – | one drug per monomer | 0.07 µM | competitive inhibitor
CC(C)(C)NC(=O)C(c1cccnc1)N(C(=O)c1ccco1)c1ccc(C(C)(C)C)cc1 (centres unmarked) [ML188 (1), N-tert-butyl-2-[N-(4-tert-butylphenyl)-1-(furan-2-yl)formamido]-2-(pyridin-3-yl)acetamide, reference compound] | – | – | – | competitive inhibitor
